{"source": "patent US20180193452A1", "about": "(NEMOURS FOUNDATION, published 2018)", "molecular_target": "transmembrane form of IgE (mIgE) on U266 cells (human, UniProt P01854 1-546)", "sequence (P01854 whole entry, the tested form may be a part)": "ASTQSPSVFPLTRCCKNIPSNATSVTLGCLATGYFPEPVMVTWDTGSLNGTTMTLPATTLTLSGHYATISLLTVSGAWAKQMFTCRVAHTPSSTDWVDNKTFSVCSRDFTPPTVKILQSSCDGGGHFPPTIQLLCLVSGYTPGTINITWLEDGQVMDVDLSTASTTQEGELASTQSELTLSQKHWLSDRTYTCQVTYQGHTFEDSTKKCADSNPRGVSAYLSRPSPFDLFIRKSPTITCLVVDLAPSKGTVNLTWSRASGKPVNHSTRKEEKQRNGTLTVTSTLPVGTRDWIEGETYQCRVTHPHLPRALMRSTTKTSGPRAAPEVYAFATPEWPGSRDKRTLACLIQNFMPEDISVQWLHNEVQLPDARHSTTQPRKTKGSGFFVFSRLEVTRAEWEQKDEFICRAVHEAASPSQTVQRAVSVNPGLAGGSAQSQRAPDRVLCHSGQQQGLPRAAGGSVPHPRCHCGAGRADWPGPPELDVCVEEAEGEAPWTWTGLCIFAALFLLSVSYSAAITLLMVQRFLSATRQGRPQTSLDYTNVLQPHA", "test": "cell-based or functional assay", "data": [{"binder": "M2 CAR (FcεRIα extracellular domain K117D+D159A fused to CD3ζ) (receptor) VPQKPKVSLNPPWNRIFKGENVTLTCNGNNFFEVSSTKWFHNGSLSEETNSSLNIVNAKFEDSGEYKCQHQQVNESEPVYLEVFSDWLLLQASAEVVMEGQPLFLRCHGWRNWDVYDVIYYKDGEALKYWYENHNISITNATVEDSGTYYCTGKVWQLAYESEPLNITVIKAPREKYWLQGGSGG[about 150 residues not printed]", "values": [{"measurement": "killing of U266-luci cells by M2 CAR+ human CD8+ T cells (luciferase, specific lysis)", "result": "> 3", "unit": "fold"}]}]}
